Test results taken from the supplement of paper PMC3334620.
Whole data set: some 33,000 sequences, median “E-score (-0.5 to 0.5)” near -0.032, cut for the highest 2% near 0.36. The list shows a part of the results.

Target: T1, Sko1 (UniProt Q02100)
T1 sequence: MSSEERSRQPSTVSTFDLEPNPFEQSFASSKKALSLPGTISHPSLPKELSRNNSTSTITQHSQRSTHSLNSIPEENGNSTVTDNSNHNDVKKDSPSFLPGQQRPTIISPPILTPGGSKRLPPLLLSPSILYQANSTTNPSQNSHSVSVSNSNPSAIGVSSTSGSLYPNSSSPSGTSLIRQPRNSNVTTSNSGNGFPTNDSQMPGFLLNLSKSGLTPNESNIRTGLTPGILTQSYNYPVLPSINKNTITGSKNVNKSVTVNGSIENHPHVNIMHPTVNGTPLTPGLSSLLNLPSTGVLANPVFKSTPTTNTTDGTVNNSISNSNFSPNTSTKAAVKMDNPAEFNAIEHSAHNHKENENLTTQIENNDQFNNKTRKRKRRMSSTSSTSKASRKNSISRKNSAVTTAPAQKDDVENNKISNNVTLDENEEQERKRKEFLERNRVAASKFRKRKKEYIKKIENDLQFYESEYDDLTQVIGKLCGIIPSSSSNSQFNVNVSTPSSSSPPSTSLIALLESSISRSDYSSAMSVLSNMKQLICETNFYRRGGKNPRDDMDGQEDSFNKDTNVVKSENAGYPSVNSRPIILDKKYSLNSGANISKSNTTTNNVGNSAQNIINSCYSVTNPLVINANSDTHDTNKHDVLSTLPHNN
Test: PBM E-score (8-mer binding enrichment) (E-score (-0.5 to 0.5)); higher = stronger / more preferred TF binding; most listed sequences are background and not binding sites
Conditions: protein concentration: 200 nM; construct: GST-full length
Protocol: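 Universal 'all 10-mer' protein binding microarrays (Agilent AMADID 015681) probed with GST-tagged S. cerevisiae TFs (full-length or DBD) made by in vitro transcription/translation (PURExpress), about 100-200 nM. Bound TF was detected with fluorescent anti-GST. Each ungapped 8-mer (which stands for itself and its reverse complement) is scored by the PBM enrichment score (E-score), a modified Wilcoxon-Mann-Whitney statistic from -0.5 to +0.5, computed with the Universal PBM Analysis Suite. Scale: above 0.35 generally sequence-specific binding.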

| Sequence | PBM E-score |
| --- | --- |
| GGTCCAAA | -0.101 |
| AGACCCAC | -0.0858 |
| ATGGGTTA | 0.0849 |
| GGCCCGAA | -0.263 |
| AGAGAGAT | 0.0264 |
| CCGCTTCA | -0.236 |
| ATGTACAT | 0.32 |
| AGCCGTCA | 0.0793 |
| CGTACCAG | 0.0706 |
| TTGGACAA | -0.0461 |
| AACCATGG | -0.0761 |
| AGCCACGG | -0.346 |
| ATGGTAAT | 0.242 |
| AGATCGTA | 0.0575 |
| CAGTGCAG | -0.254 |
| ACGCACGC | 0.316 |
| CGTAGCCA | 0.15 |
| CTAGGTGA | -0.125 |
| GCGCTTGA | -0.0697 |
| ACTGAAGG | -0.0475 |
| AAACCTGA | 0.0301 |
| ATATTACA | 0.175 |
| AGTCTAGC | -0.282 |
| GACATCCC | 0.0135 |
| AATATAAA | 0.269 |

| Sequence | PBM E-score |
| --- | --- |
| GAATCGTC | 0.122 |
| CTTGGTAA | 0.0209 |
| CGGTTGGC | -0.0926 |
| GGCAGAAC | -0.0991 |
| ATTCGAGG | -0.111 |
| CTCAACAA | 0.23 |
| ATCTTTGG | -0.00869 |
| GATCCTAA | -0.06 |
| CCAGAGGG | -0.212 |
| AAGTATTA | 0.131 |
| GACCAAAC | -0.0367 |
| TAGTCCGA | -0.165 |
| GCTCAGCA | 0.0286 |
| ACACCCGC | -0.117 |
| ACCCCTAC | -0.0736 |
| AATAGGTG | -0.0428 |
| CTTACACC | -0.25 |
| AGCCCTAT | -0.331 |
| AAAAACAT | 0.145 |
| CTTGGACA | -0.0636 |
| CGTAGAAA | 0.282 |
| GAAACTTA | 0.262 |
| TGAACCCA | -0.0415 |
| CAGTCGCC | -0.132 |
| AGTTTTTA | 0.225 |

| Sequence | PBM E-score |
| --- | --- |
| AGGAAGCA | -0.186 |
| AGATTCAT | -0.109 |
| CAAGTGGA | -0.21 |
| CCTGAGGA | -0.147 |
| AGCCGGAT | -0.296 |
| AATCTGGT | -0.147 |
| CACAACAA | 0.0758 |
| CGTACTAC | 0.228 |
| AAACTTTA | 0.16 |
| ATAGGCTG | -0.0621 |
| AGTCAGGG | -0.256 |
| AGCCTTGC | -0.324 |
| ACTATGTC | 0.2 |
| GCTTCGAC | -0.204 |
| ACGTAGGG | 0.425 |
| GAGGATCA | -0.062 |
| CGAGCAGC | -0.039 |
| AGATGGAA | -0.109 |
| AATTTAGT | 0.097 |
| TGCGGCCA | -0.158 |
| GTGGTTGA | 0.0985 |
| CCAAATGG | -0.0542 |
| AAGGCGTA | 0.128 |
| CGGTTCGC | -0.131 |
| CCTAGGTA | -0.054 |

| Sequence | PBM E-score |
| --- | --- |
| AGGCTCAG | -0.0655 |
| GGCGGAAA | -0.0247 |
| ATACCCCC | -0.264 |
| CGGGAAAC | -0.122 |
| ACCATGGT | -0.16 |
| CGGTCGTC | -0.109 |
| CCCCTTTA | -0.112 |
| ACTCTGAG | -0.273 |
| GAGAACCA | -0.127 |
| CCCCCACC | -0.46 |
| ATACTCTC | -0.00604 |
| CACGGGAA | -0.167 |
| CCCAGACG | -0.0835 |
| ATCTCTTG | -0.21 |
| CTCCCATA | -0.269 |
| GCTACGCC | -0.167 |
| GAGGGAAA | -0.118 |
| AGGGCACT | -0.164 |
| CCGTAACC | -0.0904 |
| ATTGCAGA | 0.0455 |
| CACCCTGG | -0.259 |
| ACAGCCAC | -0.0572 |
| CCTCATGC | -0.142 |
| ATCGTCCG | 0.0463 |
| AAATTCAT | 0.205 |

| Sequence | PBM E-score |
| --- | --- |
| ACTTCATG | -0.0433 |
| CACCCGTA | -0.158 |
| CCGCGAAC | -0.223 |
| AACAGTTA | -0.118 |
| AGAGGAGC | -0.186 |
| ACGCGCCG | -0.0415 |
| AATCCATG | 0.0618 |
| GGACCACA | -0.223 |
| CGTTTTAG | 0.0401 |
| ACGAAGTA | 0.135 |
| AAAGTGTT | 0.0977 |
| GCTCAGGA | -0.0979 |
| GGACTGTA | -0.0526 |
| CGGCAAAC | -0.0152 |
| ACATCGCT | -0.0491 |
| ACTCGGGG | -0.227 |
| AGGTTCCA | -0.0877 |
| AGGCAGAT | -0.193 |
| AATGCGGT | -0.293 |
| CCTCCAGA | -0.144 |
| ATCATTGG | 0.217 |
| CATCCCTC | -0.245 |
| TAATTAAA | 0.2 |
| GGAGTCCA | -0.134 |
| TAAATGCA | 0.131 |

| Sequence | PBM E-score |
| --- | --- |
| AGTCAGAG | -0.142 |
| TAATCGCA | 0.116 |
| AAGAGAAG | 0.0141 |
| AGCGTTGC | -0.0415 |
| CAACGGCG | -0.201 |
| AGTGTTGC | 0.206 |
| ACTCCGCC | -0.311 |
| ACTCACCC | -0.239 |
| TAGAACGA | 0.0498 |
| ACGACAGG | 0.11 |
| AGGTTCGC | -0.202 |
| AATATGTA | 0.245 |
| TGAACGAA | 0.00411 |
| CAAGTGAA | 0.0584 |
| ATACACCC | -0.118 |
| AAGCTTAC | 0.149 |
| TCGGTGAA | -0.00999 |
| TAACATGA | 0.127 |
| CGCCCTGC | -0.236 |
| GAGGGAGA | -0.319 |
| AAAACCTC | 0.00859 |
| CAGTGCTC | -0.122 |
| ATTAAGCA | 0.0526 |
| ACTGTGCA | 0.0441 |
| CGAGGTTA | -0.0761 |

| Sequence | PBM E-score |
| --- | --- |
| CCTTTTTA | 0.0841 |
| TGAGGCCA | -0.029 |
| CGTAAATC | 0.313 |
| AGCCTACG | 0.299 |
| CATTGGAC | -0.0939 |
| AAGCGTAC | 0.0273 |
| AATCTATA | 0.311 |
| ATAGGATG | -0.0288 |
| CGGGGTGA | -0.178 |
| AGCGAGGC | -0.129 |
| CACGTACA | 0.389 |
| AGTCCGCC | -0.177 |
| ATAGTAAG | 0.042 |
| GACTTCGA | 0.0321 |
| GCGAGTTA | 0.139 |
| CAGCTTCG | -0.0585 |
| GATTTAGA | 0.106 |
| CGCAACCG | 0.0625 |
| AAATGAAG | -0.0747 |
| ACAAACCA | -0.0895 |
| AACGCGCA | 0.21 |
| ACTGCTGA | -0.0762 |
